Source: publication PMC5582858, “The yeast kinesin-5 Cin8 interacts with the microtubule in a noncanonical manner” (The Journal of Biological Chemistry, 2017)

Assays:
[1] = target: T1, Cin8-trx (Cin8 motor domain, residues 70–535, fused to N-terminal thioredoxin (TrxA), His6, TEV cleavage and … (S. cerevisiae, UniProt P27895 70-535)); assay: co-sedimentation; 2 μM kinesin, 0–4 μM paclitaxel-stabilised microtubules, no added nucleotide, high ionic strength (88 mM; ATPase buffer with 75 mM KCl), 298 K, 100,000 × g 30 min; supernatant and pellet by SDS-PAGE; apparent constants, fit to Equation 3; settings: both partners purified
T1 construct: Kinesin-5 Cin8, S. cerevisiae, motor domain, residues 70–535; Expected mass 67.3 kDa; source: E. coli B834(DE3) with pRILP, purified (SP-Sepharose, nickel-nitrilotriacetic acid, Sephadex G-25); not shown: thioredoxin (TrxA), N-terminal, kept; His6, N-terminal, kept; TEV cleavage tag, N-terminal, kept; Arg9, N-terminal, kept
T1 sequence (looked up): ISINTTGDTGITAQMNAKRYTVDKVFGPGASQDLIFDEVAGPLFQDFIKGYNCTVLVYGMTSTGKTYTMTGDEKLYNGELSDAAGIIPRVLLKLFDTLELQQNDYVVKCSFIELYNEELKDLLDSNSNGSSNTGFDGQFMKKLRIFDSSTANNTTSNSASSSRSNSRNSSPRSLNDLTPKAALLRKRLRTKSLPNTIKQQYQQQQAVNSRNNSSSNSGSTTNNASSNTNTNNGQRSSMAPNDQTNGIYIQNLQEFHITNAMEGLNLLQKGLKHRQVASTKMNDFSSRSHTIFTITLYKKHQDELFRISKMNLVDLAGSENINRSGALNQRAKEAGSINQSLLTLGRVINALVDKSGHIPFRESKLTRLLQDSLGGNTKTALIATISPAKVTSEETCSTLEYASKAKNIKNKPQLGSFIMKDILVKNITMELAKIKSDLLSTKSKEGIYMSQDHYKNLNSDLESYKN

[2] = target: T1, Cin8-trx (Cin8 motor domain, residues …); assay: co-sedimentation; 2 μM kinesin, 0–4 μM paclitaxel-stabilised microtubules, no added nucleotide, low ionic strength (21 mM; ATPase buffer with 7.5 mM KCl), 298 K, 100,000 × g 30 min; supernatant and pellet by SDS-PAGE; apparent constants, fit to Equation 3; settings: both partners purified

- Kd [1]: 80 ± 40 nM
- Kd [2]: 70 ± 30 nM
B1: Subtilisin-treated microtubules (lacking the C-terminal tails of α- and β-tubulin) (complex)
chain 1: [in this place about 450 residues]
chain 2: MREIVHIQAGQCGNQIGAKFWEVISDEHGIDPTGSYHGDSDLQLERINVYYNEATGNKYVPRAILVDLEPGTMDSVRSGPFGQIFRPDNFVFGQSGAGNNWAKGHYTEGAELVDSVLDVVRKESESCDCLQGFQLTHSLGGGTGSGMGTLLISKIREEYPDRIMNTFSVMPSPKVSDTVVEPYNATLSVHQLVENTDETYCIDNEALYDICFRTLKLTTPTYGDLNHLVSATMSGVTTCLRFPGQLNADLRKLAVNMVPFPRLHFFMPGFAPLTSRGSQQYRALTVPELTQQMFDSKNMMAACDPRHGRYLTVAAIFRGRMSMKEVDEQMLNVQNKNSSYFVEWIPNNVKTAVCDIPPRGLKMSATFIGNSTAIQELFKRISEQFTAMFRRKAFLHWYTGEGMDEMEFTEAESNMNDLVSEYQQYQDATADEQ
modifications: Purified bovine brain tubulin is an isotype mixture; the representative isotypes alpha-1B and beta-2B are assumed, as the paper states none. Cleavage limits are not given; the conventional major …
